We go through 88 compounds from PMC4336329 (PLoS ONE, 2015).

Hit rate of the full screen: of about 310,000 compounds, about 14,000 (4.5%) showed an effect of 50% or more. The effect is printed as a negative number. The list shows a part of the results.
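Also: peak tail current of the secondary pulse compared with the same well before compound.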

Sequence of human ether-à-go-go-related gene (hERG) potassium channel (Q12809 whole entry, looked up): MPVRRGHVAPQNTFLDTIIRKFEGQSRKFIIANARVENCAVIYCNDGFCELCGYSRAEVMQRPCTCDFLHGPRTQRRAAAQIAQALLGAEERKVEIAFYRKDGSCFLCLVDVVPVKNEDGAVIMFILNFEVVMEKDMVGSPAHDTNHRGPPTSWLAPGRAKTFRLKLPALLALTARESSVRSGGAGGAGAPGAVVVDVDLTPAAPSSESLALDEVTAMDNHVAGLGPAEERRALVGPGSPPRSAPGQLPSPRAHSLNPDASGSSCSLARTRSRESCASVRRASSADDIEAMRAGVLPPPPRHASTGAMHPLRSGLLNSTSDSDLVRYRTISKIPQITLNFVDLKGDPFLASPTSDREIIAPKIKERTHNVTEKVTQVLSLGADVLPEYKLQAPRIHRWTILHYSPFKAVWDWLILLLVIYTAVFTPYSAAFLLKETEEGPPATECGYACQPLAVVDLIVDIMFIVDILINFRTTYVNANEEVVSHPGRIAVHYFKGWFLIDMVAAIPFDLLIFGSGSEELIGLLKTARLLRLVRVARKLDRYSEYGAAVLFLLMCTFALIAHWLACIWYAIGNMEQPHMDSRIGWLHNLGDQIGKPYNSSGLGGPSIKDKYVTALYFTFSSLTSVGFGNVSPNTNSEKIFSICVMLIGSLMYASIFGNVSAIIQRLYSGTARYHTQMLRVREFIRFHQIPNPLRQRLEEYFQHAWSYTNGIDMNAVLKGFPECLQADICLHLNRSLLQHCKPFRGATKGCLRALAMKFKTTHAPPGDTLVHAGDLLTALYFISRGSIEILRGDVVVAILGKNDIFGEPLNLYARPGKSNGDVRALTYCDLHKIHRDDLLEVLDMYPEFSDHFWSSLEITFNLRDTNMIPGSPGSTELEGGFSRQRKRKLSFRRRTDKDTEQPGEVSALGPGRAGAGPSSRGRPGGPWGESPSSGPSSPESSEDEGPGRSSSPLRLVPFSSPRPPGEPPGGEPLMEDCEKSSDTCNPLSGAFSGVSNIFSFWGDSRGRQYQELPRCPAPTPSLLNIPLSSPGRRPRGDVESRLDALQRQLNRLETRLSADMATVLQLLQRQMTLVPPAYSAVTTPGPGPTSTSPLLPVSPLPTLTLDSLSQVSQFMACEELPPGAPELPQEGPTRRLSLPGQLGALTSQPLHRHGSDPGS

This assay concerns the target human ether-à-go-go-related gene (hERG) potassium channel (human, UniProt Q12809). Nature of the assay: primary screen, population patch clamp on CHO cells stably expressing hERG.
Turning to `ON1C(c2ccc(Cl)cc2Cl)N(O)[C@H]2CCCC[C@H]21` (stereo partly shown), the “hERG current change (%, negative = inhibition) at 10uM” value was -1.85%.
The same measure for `O=S(=O)(c1ccccc1)c1nc(-c2ccco2)oc1NCCCN1CCOCC1`: -6.01%.
Regarding `C=C(C)CN(CC)C(=O)CSc1nc(O)cc(=O)n1C1CCCC1`, the “hERG current change (%, negative = inhibition) at 10uM” value was 29.4%.
The same measure for `Cc1ccc(S(=O)(=O)N(C)C)cc1NC(=O)COC(=O)c1sc2cc(Cl)ccc2c1Cl`: -0.033%; for `CC(=O)N/C(=C/c1ccc(OS(=O)(=O)c2ccc(C)cc2)cc1)C(=O)NCCO`: -10.2%.
The result for `O=C(NNS(=O)(=O)c1ccc(F)cc1)c1cnn(-c2ccccc2)c1C(F)(F)F` reads -1.59%.
The same measure for `CCOC(=O)c1nnn(CC(=O)Nc2cccc(Cl)c2C)c1C(=O)OCC`: 4.51%; for `O=c1[nH][nH]c(C(F)(F)F)c1C=NCc1cccc(Cl)c1`: 6.25%.
With `O=S(=O)(c1ccc(Br)cc1)n1ccc2ccccc21`, the “hERG current change (%, negative = inhibition) at 10uM” value worked out at 0.941%.
Consider `O=C(COC(=O)c1ccc2c(c1)S(=O)(=O)N=C1CCCCCN12)NCc1cccs1`, for which the “hERG current change (%, negative = inhibition) at 10uM” value is reported as 6.76%.
For `COc1ccc2nc(NC(=O)CCc3nc(C4=CCN(C)CC4)no3)sc2c1`, the “hERG current change (%, negative = inhibition) at 10uM” value is -13.5%.
The same measure for `COCCNC(=O)/C(C#N)=C/c1ccc(O)c([N+](=O)[O-])c1`: 14.7%.
With `CC(=O)c1c(C)oc2ccc(N(C(C)=O)S(=O)(=O)c3cccc4cccnc34)cc12`, the “hERG current change (%, negative = inhibition) at 10uM” value is recorded as -14.1%.
The result for `CN(C)c1nccc(Nc2ccccc2)c1C#N` reads -13%.
The same measure for `COc1ccc(S(=O)(=O)N2CCC(C(=O)O)(c3ccccc3)CC2)cc1`: 19.8%; for `CCOc1ccc(NC(=O)CN(C)CC(=O)Nc2ccccc2C#N)cc1OCC`: 0.268%.
Regarding `CCN(c1ccccc1)S(=O)(=O)c1ccc(NN)nc1`, the “hERG current change (%, negative = inhibition) at 10uM” value was -12.2%.
The same measure for `CC(C)OC(=O)C1C(=O)NC2(C)CC1c1ccccc1O2` (stereo not shown): 18%; for `COc1ccc(NC(=O)CN2C(=O)COc3ccc(S(=O)(=O)N4CCCCCC4)cc32)cc1`: 18.9%.
The same measure for `COc1ccc2c(C)cc(SCn3nnc4ccccc4c3=O)nc2c1`: 4.36%; for `Cc1ccccc1NC(=O)Cn1nnc(-c2ccc(CN3CCC(C)CC3)cc2)n1`: -5.75%; for `N#Cc1ccccc1Cn1c(=O)n(CCCC(=O)NCc2ccc3c(c2)OCO3)c(=O)c2ccccc21`: -7.13%.
The result for `CC(=O)Nc1ccc2nsnc2c1` reads 16%; that for `CCCCCCCc1ccc(C2NC(=S)NC3=C2C(=O)c2ccccc23)cc1` (stereo not shown), 8.78%.
Turning to `Cc1ccc(C)n1-c1ccc(-n2cnnn2)cc1`, the “hERG current change (%, negative = inhibition) at 10uM” value is -5%.
The result for `Cl.O=C(CN1CCCC(O)C1)N1c2ccccc2Sc2ccc(C(F)(F)F)cc21` (stereo not shown) reads -7.16%; that for `CCCOc1c(OC)cccc1C1CC(=O)Nc2cc(OC)c(OC)c(OC)c21` (stereo not shown), -5.03%.
With `COc1ccc(NC(=O)CC2SC(=NCc3ccccc3OC)NC2=O)cc1` (stereo not shown), the “hERG current change (%, negative = inhibition) at 10uM” value is reported as 8.42%.
The same measure for `O=c1[nH]c(N/N=C/c2ccccc2Br)nnc1-c1ccccc1`: -3.18%; for `Br.CCOC(=O)CCCc1sc(N)nc1-c1[nH]c(=O)[nH]c1C`: 16.8%; for `CCCSc1nc(N2CCCC2)c2c(c1C#N)CC(C)(C)OC2`: 11.3%.
The result for `CCOC(=O)[C@@H]1[C@H]2COc3ccccc3[C@H]2N2C(=O)N(c3cccc(Cl)c3)C(=O)[C@@]12C` reads 20.6%; that for `Cc1ccc(CS(=O)(=O)CCC(=O)NCc2ccccc2Cl)cc1`, 12.3%; that for `O=C1CSc2ccc(S(=O)(=O)CCC(=O)NC3CCCCC3)cc2N1`, 12.8%.
Turning to `Cc1ccc2nc(SC(C)C(=O)NCc3ccco3)[nH]c2c1` (stereo not shown), the “hERG current change (%, negative = inhibition) at 10uM” value is 6.29%.
With `COc1ccccc1N(CC(=O)Nc1ccccc1C(=O)NCC(C)C)S(C)(=O)=O`, the “hERG current change (%, negative = inhibition) at 10uM” value is -8.84%.
The same measure for `CCOc1ccccc1NC(=O)CSc1nnc(-c2cnccn2)n1C`: -22.7%; for `COc1ccc(NC(=O)CN2C(=O)C(C)Oc3ccccc32)c(OC)c1` (stereo not shown): -10.4%; for `Nn1c(Cc2cccc3ccccc23)nnc1SC1CCOC1=O` (stereo not shown): -0.158%.
The same measure for `O=C(O)CSc1ncnc2sc3c(c12)CCCC3`: 14.9%; for `CC(=O)NC(C)c1nc2ccccc2n1CC(=O)N1C(C)CCCC1C` (stereo not shown): 16.1%; for `COCCn1nnnc1C(c1ccc(OC)c(OC)c1)N1CCc2ccccc21` (stereo not shown): -1.72%.
`O=C(C1CN(S(=O)(=O)c2ccccc2)CCN1S(=O)(=O)c1ccccc1)N1CCCCCC1` (stereo not shown): the “hERG current change (%, negative = inhibition) at 10uM” value worked out at 2.61%.
As to `COc1cccc(C(=O)Cn2c(N3CCCCC3)nc3c2c(=O)n(C)c(=O)n3C)c1`, the “hERG current change (%, negative = inhibition) at 10uM” value was 12.6%.
The same measure for `Cc1ccc2nc(-c3ccncc3)[nH]c2c1`: 16.8%.
The same measure for `CCOc1ccc(CNC(=S)Nc2ccccc2)cc1Cl`: 13%; for `CC(=O)Nc1nc(=S)ss1`: 21.2%.
The same measure for `O=C(Nc1cc(SCC(O)CO)cc([N+](=O)[O-])c1)c1ccc(-n2cnnn2)cc1` (stereo not shown): 20.9%; for `CC(OC(=O)CN1C(=O)NC2(CCCC2)C1=O)C(=O)Nc1cccc(Cl)c1` (stereo not shown): -15.3%; for `CCCCN1C(=O)/C(=C(/C#N)C(N)=O)c2ccccc21`: 24.3%.
Take `CC(=O)NC(CC(=O)OCC(=O)Nc1ccc2c(c1)OCO2)c1ccccc1` (stereo not shown): the “hERG current change (%, negative = inhibition) at 10uM” value was found to be 16.9%.
The result for `CCCNC(=O)CN1CCN(c2cc3ccccc3c(Cl)n2)CC1` reads -48.2%; that for `O=C(CC(c1ccccc1)c1ccccc1O)NCc1ccccc1Cl` (stereo not shown), -1.24%.
Take `COc1cccc(N2CCN(CC(=O)Nc3nc(C)c(C(=O)N(C)C)s3)CC2)c1`: the “hERG current change (%, negative = inhibition) at 10uM” value is 8.42%.
The same measure for `COC(=O)CNC(=O)C1CCN(S(=O)(=O)c2cccc3nsnc23)CC1`: 20.2%; for `CC(=O)Nc1ccc(SC[C@H](Cc2ccccc2)N2CCN(CCc3ccccc3)CCC2=O)cc1`: -55.9%.
The result for `COc1ccc(NC(=S)Nc2ccc(OC(F)F)cc2)cn1` reads -25.8%.
The result for `Cc1onc(-c2ccccc2Cl)c1C(=O)Nc1cccnc1` reads -6.11%; that for `COc1ccc(N=C2S/C(=C\c3cccs3)C(=O)N2CC(C)C)cc1`, -6.62%.
Regarding `O=C(N/N=C\c1ccc(OCC(=O)N2CCCC2)cc1)C(=O)Nc1ccccc1F`, the “hERG current change (%, negative = inhibition) at 10uM” value is reported as -40.7%.
For `C/C(=N/NC(=O)CNC(=O)c1ccc2c(c1)OCO2)c1ccc2c(c1)CCCC2`, the “hERG current change (%, negative = inhibition) at 10uM” value is -9.71%.
The result for `C[C@H](NC(=O)NCc1ccc(F)cc1)C(=O)O` reads 8.19%; that for `CC12CCC(C(=O)N(NC(=O)c3ccccc3O)C1=O)C2(C)C` (stereo not shown), 16.7%.
The same measure for `CC12COC3(C(=O)Nc4ccccc4)CC1CCC32C` (stereo not shown): 10.9%; for `COCCNCC(O)CON=C1c2ccccc2-c2ccccc21` (stereo not shown): -21.3%.
As for `COc1ccc(NC(=O)COc2ccccc2)cc1Cl`, the “hERG current change (%, negative = inhibition) at 10uM” value is recorded as 4.08%.
As to `Cc1c(C(=O)NNc2c(Cl)cccc2Cl)n(C)oc1=O`, the “hERG current change (%, negative = inhibition) at 10uM” value was 11.3%.
The result for `Cc1nccc2c1[nH]c1ccc(Br)cc12` reads -3.51%; that for `N#Cc1nc(COc2ccc(F)cc2)oc1N1CCN(Cc2ccccc2)CC1`, -75.3%; that for `Cc1ccc(-c2nc(C=Nc3cccc(C)c3)c(O)o2)cc1`, 21.6%.
The same measure for `CCC1CCc2sc(C(=O)OCC(=O)N(CCOC)c3c(N)n(Cc4ccccc4)c(=O)[nH]c3=O)cc2C1` (stereo not shown): -13.4%; for `CN(C)c1ccc(/C=C/C(=O)c2ccccc2O)cc1`: 17.1%.
The result for `Cc1ccc(CCNC(=O)C2CCCN(S(=O)(=O)c3c(C)noc3/C=C/N(C)C)C2)cc1` (stereo not shown) reads -11.1%; that for `CC(OC(=O)c1nsc(Cl)c1Cl)C(=O)NCc1cccs1` (stereo not shown), 5.44%; that for `O=C(CC1SC(=O)N(Cc2ccccc2Cl)C1=O)Nc1nccs1` (stereo not shown), -5.31%.
As for `CCn1c(=O)c(C(=O)Nc2ncccc2O)c(O)c2ccccc21`, the “hERG current change (%, negative = inhibition) at 10uM” value is recorded as 29.1%.
The same measure for `Cc1nn(C)c(C)c1CCC(=O)N1CCCC(Nc2ccc(C(C)C)cc2)C1` (stereo not shown): 5.72%.
The same measure for `Cc1ccc(S(=O)(=O)N2CCOCC2)cc1NC(=O)COC(=O)CNC(=O)c1ccc(Cl)cc1Cl`: -12.8%; for `O=C(Nc1cc(Cl)ncn1)c1ccccc1`: 5.53%.
The result for `Cc1ccc(OCCn2cc(/C=N/NC(=O)c3ccncc3)c3ccccc32)cc1` reads -7.64%; that for `CCOc1cc(-c2nnc(-c3ccco3)o2)cc(OCC)c1OCC`, 9.51%.
Consider `Cn1cc([N+](=O)[O-])c(C(=O)Nc2ccc(C3CCCCC3)cc2)n1`, for which the “hERG current change (%, negative = inhibition) at 10uM” value was 37.1%.
`C=C(C)c1ccccc1NC(=O)CCN1C(=O)c2ccccc2S1(=O)=O`: the “hERG current change (%, negative = inhibition) at 10uM” value is -1.17%.
The same measure for `Cc1ccc(/C=C/C(=O)O)cc1S(=O)(=O)N1CCCCC1`: 8.12%.
On to `COc1cc(OC)c(OC)cc1CNCc1ccc2c(c1)OCO2`, for which the “hERG current change (%, negative = inhibition) at 10uM” value is recorded as 16.1%.
For the compound `Cc1cccc(/C=N/NC(=O)c2cc(-c3cccnc3)nc3ccccc23)c1`, the “hERG current change (%, negative = inhibition) at 10uM” value turned out to be 1.78%.
Turning to `CCN(CC)c1ccc(NC(=O)CN2CCN(CC(=O)Nc3ccccc3OC)CC2)cc1`, the “hERG current change (%, negative = inhibition) at 10uM” value is -26.9%.
The same measure for `COc1cc(C2C(C#N)=C(N)Oc3cc(C)oc(=O)c32)cc2c1OCO2` (stereo not shown): -6.59%.
